Reference: the supplement of paper PMC3334620
Whole data set: some 33,000 sequences, median “E-score (-0.5 to 0.5)” near -0.04, cut for the highest 2% near 0.36. The list shows a part of the results.

Each sequence was assayed against T1, Hmlalpha2 (UniProt P0CY09) (assay: PBM E-score (8-mer binding enrichment) (E-score (-0.5 to 0.5)); higher = stronger / more preferred TF binding; most listed sequences are background and not binding sites). Settings: protein concentration: 200 nM; construct: GST-full length.
T1 sequence: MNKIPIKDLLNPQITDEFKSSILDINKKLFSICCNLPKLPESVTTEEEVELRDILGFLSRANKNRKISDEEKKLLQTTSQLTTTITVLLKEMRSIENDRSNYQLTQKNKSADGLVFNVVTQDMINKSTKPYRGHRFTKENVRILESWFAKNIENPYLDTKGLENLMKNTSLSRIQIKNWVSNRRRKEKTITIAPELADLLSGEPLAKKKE
Description: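 Universal 'all 10-mer' protein binding microarrays (Agilent AMADID 015681) probed with GST-tagged S. cerevisiae TFs (full-length or DBD) made by in vitro transcription/translation (PURExpress), about 100-200 nM. Bound TF was detected with fluorescent anti-GST. Each ungapped 8-mer (which stands for itself and its reverse complement) is scored by the PBM enrichment score (E-score), a modified Wilcoxon-Mann-Whitney statistic from -0.5 to +0.5, computed with the Universal PBM Analysis Suite. Scale: above 0.35 generally sequence-specific binding.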

| Sequence | PBM E-score |
| --- | --- |
| GAAAAACA | 0.169 |
| CGGGAAGC | -0.026 |
| GGAACTAC | 0.123 |
| ACCTCAAA | -0.123 |
| TAGGAGGA | -0.0737 |
| CCCTGGCA | -0.24 |
| ACTTACGA | 0.228 |
| AGGGTGGA | -0.398 |
| ATAGTATG | 0.0185 |
| CAGTGTAG | 0.243 |
| ATAACCTC | 0.0724 |
| GACGATAC | 0.063 |
| TCATAGAA | -0.0273 |
| GAAAGTAC | 0.0263 |
| CCACATAC | 0.122 |
| ACACTTGA | -0.0396 |
| AGAGCCCC | -0.329 |
| ATAGAAGA | 0.00819 |
| GACCAACA | 0.29 |
| ACATAGGT | 0.335 |
| GCATCATA | 0.202 |
| ATCACGCC | -0.0263 |
| CCTACGCC | -0.308 |
| AGAGCGAG | -0.131 |
| GTAGACGA | 0.17 |

| Sequence | PBM E-score |
| --- | --- |
| ACACACCA | 0.369 |
| GATTACGC | 0.345 |
| ACCCGGGG | -0.223 |
| TAGTGGGA | -0.0891 |
| CCGAGCCA | -0.0809 |
| ATATTGGA | -0.0473 |
| TCAGGAAA | -0.145 |
| CTCGGTCA | -0.085 |
| AAGTGATC | 0.00443 |
| GCAAATGA | -0.0665 |
| CAAATGCA | 0.0659 |
| AATTTGCT | 0.117 |
| TAGTATGA | 0.128 |
| CGAAAGAG | -0.136 |
| AGACAATA | 0.0893 |
| ACCGCTAA | 0.0418 |
| CATTATCA | 0.141 |
| AGCGAAAG | -0.166 |
| AATTTAAT | 0.269 |
| GCGAGAGC | -0.0684 |
| AGCCTCTG | -0.341 |
| AACTAAGA | 0.166 |
| ACATCCAT | 0.121 |
| GATCTAGA | -0.184 |
| CAGGTGTC | -0.145 |

| Sequence | PBM E-score |
| --- | --- |
| CCCAAAGA | -0.0661 |
| AACTGCTA | -0.0585 |
| GAAAGCGA | -0.0353 |
| TAAGCCAA | 0.0211 |
| TACACGCA | 0.442 |
| ACACAATA | 0.253 |
| GACAGTGA | 0.039 |
| AGAATGTC | 0.0879 |
| TACGGACA | 0.0328 |
| ATCTTGTA | 0.383 |
| ATAAGTCC | -0.139 |
| ACCCAGAT | -0.26 |
| GACGTGAC | -0.0049 |
| CGGACGTC | -0.051 |
| GAACCACA | 0.0162 |
| GAGAACAC | 0.175 |
| CGCCATAA | -0.148 |
| TCGAAGCA | -0.122 |
| CCTGTTCC | -0.0872 |
| ACGGGATG | -0.0871 |
| CGTCGCAC | -0.139 |
| CGGTACGC | 0.0577 |
| GGGTCACA | -0.265 |
| GGGCAGTA | -0.213 |
| ATGGCATC | -0.168 |

| Sequence | PBM E-score |
| --- | --- |
| GGAGCGAA | -0.148 |
| GTATTTGA | 0.189 |
| ATCTATTC | -0.0341 |
| TATTAAGA | 0.0998 |
| AGATTTCA | 0.115 |
| ATTGGGGA | -0.192 |
| AATCACTA | 0.00721 |
| CATGAGCC | -0.00078 |
| CGCAGTAG | -0.0703 |
| CTAGTGAC | -0.0738 |
| AGCCTTCA | -0.0117 |
| TGCAGCCA | -0.185 |
| CTCGCCCA | -0.141 |
| CATTGCAA | 0.0072 |
| TAAAGCAA | 0.139 |
| AATGCCGT | 0.0599 |
| AGGACGAA | -0.132 |
| AGCCAGCT | 0.0204 |
| TATCACCA | 0.0236 |
| CGCATCGA | 0.0626 |
| AACACCTC | -0.0165 |
| CTCGATGA | -0.0377 |
| GGTACAAA | 0.138 |
| AATTGCCA | -0.0393 |
| CCATAGCG | -0.0817 |

| Sequence | PBM E-score |
| --- | --- |
| ATTGTCCG | 0.00715 |
| CCGATATC | -0.0999 |
| AAGGGCTG | -0.315 |
| GAAGATGC | -0.305 |
| AATACAAA | 0.363 |
| ACGCGGTG | 0.228 |
| CAGACAGG | -0.219 |
| GGCGATCA | -0.0532 |
| AGATTGGA | -0.00393 |
| CCTATACC | -0.28 |
| CGCCAAAC | -0.146 |
| GGAGGGAA | -0.325 |
| GAACCTAA | -0.135 |
| GACTTCCC | -0.275 |
| CGAAACAC | 0.179 |
| CAGGCCTC | -0.177 |
| GCTCGACA | -0.0369 |
| CACGATTC | 0.114 |
| AACAAGGC | 0.219 |
| ATTACGTC | 0.321 |
| CGCATAAC | -0.041 |
| TATTCCGA | 0.0922 |
| AACTTGCT | -0.0772 |
| ACCTGGAG | 0.0158 |
| TACTGCAA | 0.0107 |

| Sequence | PBM E-score |
| --- | --- |
| TACAGTGA | 0.194 |
| TCCAGCCA | -0.0964 |
| ACCCTTGG | -0.263 |
| CCAATCGC | -0.252 |
| AGCAAGGC | -0.225 |
| TGCAGGCA | -0.0877 |
| ATGACAGG | -0.0747 |
| AAATGCAT | 0.0313 |
| ACACGTGG | 0.293 |
| AGATGCTA | -0.0455 |
| AACATGGG | 0.415 |
| GGCATAAC | -0.0304 |
| CTGTCGGA | 0.0323 |
| ACAAGTCA | 0.0314 |
| CCGTCTCG | -0.159 |
| GTGCCGGA | -0.275 |
| CTAGAGGC | -0.176 |
| ATCACGGC | -0.103 |
| CGCTTTTA | 0.152 |
| AATATGAT | -0.0482 |
| AGTGACGC | -0.0855 |
| GTTCCTGA | -0.267 |
| ACGATCGA | 0.0963 |
| AGTGCAGC | -0.0472 |
| GCTTAACC | -0.00807 |

| Sequence | PBM E-score |
| --- | --- |
| AACCACTA | 0.0213 |
| GGACGGGA | -0.229 |
| GAGTAAGA | 0.146 |
| CACGCGCC | 0.129 |
| CGGTGTAA | 0.285 |
| AAAGTATT | 0.0571 |
| GGTATAGA | -0.00821 |
| GACAGGCA | -0.257 |
| ACTGAAGT | -0.114 |
| GTGGGTAA | 0.0692 |
| ATTCGATC | 0.0959 |
| AGCCCCGA | -0.231 |
| TAGGCCAA | -0.0405 |
| ATCATAAG | -0.00054 |
| GAGCAGGC | -0.138 |
| GAACAGAC | 0.0203 |
| GTTGGGAA | 0.0189 |
| AGCCGGGC | -0.15 |
| GGGATATA | -0.125 |
| CGCTCAAC | 0.06 |
| ATAATAAT | 0.181 |
| ACATTCGA | 0.123 |
